Reference: PubChem BioAssay (NCATS)
“And” between values parts separate entries of the source, which are not always exact repeats. Equal entries are not always repeated. This is one part of the list. Shown are side measurements of this screen, not its main read-out; they come without a call. The list favours compounds with an active or inconclusive main result. For part of these data: The note in brackets gives the kind of curve behind each potency; many fits are weak.

Legend:
[1] = qHTS Assay for Lipid Storage Modulators (AID 1519); conditions: Drosophila S3 cells, BODIPY lipid droplet/cell ratio, laser cytometry, cells loaded with oleic acid
Outline: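 Cells seeded at 5,000 per well were treated with compounds over a concentration series and loaded with oleic acid (400 uM, as added). Lipid droplet fluorescence (488 nm excitation, 500-530 nm channel) was read by laser-scanning cytometry and normalized to 20 uM Triacsin C.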

[2] = qHTS Assay for Modulators of Human Peripheral Myelin Protein 22 (PMP22) Expression/Activity (AID 1967); conditions: Cell-based PMP22 reporter, dual-color luciferase ratio
Outline: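 Luminescence ratio of Pmp22 promoter-driven green luciferase to EF-alpha-driven red luciferase, in engineered mouse MSC80 Schwann cells, served as read-out. Compounds were incubated 24h; untreated cells defined 0% Activity; curves were classified by r2, magnitude and activity.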

[3] = qHTS Assay for Inhibitors of PDE-IV (AID 607); conditions: HEK293 ACTOne CNG channel cells, membrane potential fluorescence; measured here: parental cell counter-screen;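 note: parental cells stimulated with forskolin 10 µM plus RO 20-1724 100 µM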
Outline: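 ACTOne HEK293 cells carry a modified cAMP-gated CNG channel and express endogenous PDE4; plated 1000 cells/well, compounds up to 22.9 uM final. Membrane-potential dye fluorescence (ex 535/em 590) was read; parental cells received 10 uM forskolin + 100 uM RO 20-1724.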

[4] = qHTS Validation Assay to Find Inhibitors of Chronic Active B-Cell Receptor Signaling (AID 485345); conditions: ABC-DLBCL cells, chronic BCR signaling reporter
Outline: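 Read-out: ratio of filter-corrected green (IkappaBalpha fusion) to red (native) luciferase signal in doxycycline-induced TMD8 cells after 4 h at 37C. Titration spanned 46 uM–3 nM; Data were normalised to basal cells and 10 uM MG-132 wells.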

[5] = Nrf2 qHTS screen for inhibitors: Validation (AID 493153); conditions: A549 ARE-Fluc reporter, 18-24 h; AC50: CellTiter-Fluor fluorescence read, measured here: cytotoxicity CellTiter-Fluor AC50; viability change: measured here: cytotoxicity max response
Outline: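 Concentration-response on A549 ARE_Fluc reporter cells exposed 18-24 h at 37 C, 5% CO2. Cytotoxicity read first by CellTiter-Fluor fluorescence (Ex 405/Em 525), then Nrf2 inhibition by BugLite luminescence after 15 min.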

[6] = qHTS assay for small molecule antagonists of glucocorticoid receptor signaling (AID 588533); conditions: HeLa MMTV-bla, GRE beta-lactamase ratio, antagonist mode, 18 h; measured here: W530 channel AC50;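 note: cells stimulated with 2 nM dexamethasone as agonist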
[7] = qHTS assay for small molecule antagonists of peroxisome proliferator-activated receptor gamma signaling (AID 588537); conditions: HEK293 PPARg-UAS-bla, beta-lactamase ratio, antagonist mode; measured here: W460 blue channel
Outline: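 Antagonist-mode β-lactamase reporter screen run as a titration series. HEK293 PPARγ-UAS-bla cells are stimulated with rosiglitazone (50 nM final) for 16 h, then CCF4 is read at 460/530 nm. Data are scaled between DMSO and rosiglitazone and fitted to the Hill equation.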

[8] = qHTS assay for small molecule agonists of retinoid X receptor alpha signaling (AID 588544); conditions: HEK293T RXRa-UAS-bla, beta-lactamase reporter, 18 h; 530 nm emission
[9] = qHTS assay for small molecule antagonists of retinoid X receptor alpha signaling (AID 588546); conditions: HEK293T RXRa-UAS-bla, beta-lactamase ratio, antagonist mode; measured here: W530 green channel, cytotoxicity proxy;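 note: cells stimulated with 9-cis-retinoic acid as agonist; % is set by controls: 0 for no effect and ±100 for the full control effect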
Outline: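 Beta-lactamase reporter inhibition, read as CCF4 fluorescence ratio (ex 405, em 460/530 nm) after 2 h at RT. HEK293T UAS-bla cells, 2500/well, were stimulated with 9-cis-RA at 500 or 100 nM final alongside test compound for 18 h at 37 C.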

[10] = measured here: cell count channel max response
[11] = measured here: cell number channel AC50
[12] = measured here: lipid (BODIPY) channel AC50
[13] = measured here: lipid channel max response
[14] = measured here: green reporter channel AC50, mouse Pmp22 promoter in mouse Schwann cells
[15] = measured here: red reporter channel AC50, EF-alpha promoter control reporter in MSC80 mouse Schwann cells
[16] = measured here: CBR control luciferase (viability counter)
[17] = measured here: CBG/CBR ratio read-out
Tags give direction and shape of the fitted curve.

## Cc1cccc(C2CN(C)CCc3c2cc(O)c(O)c3Cl)c1 (stereo not given)
[1]; [10]
  max response: -28.9%
[1]; [11]
  AC50: 2.82 µM [falling, full curve, poor fit]
[1]; [12]
  AC50: 2.82 µM [falling, full curve, poor fit]
[1]; [13]
  max response: -31.1%
[2]; [14]
  AC50: 21.3 µM [rising, full curve]
[2]; [15]
  AC50: 42.6 µM [falling, partial curve, poor fit]

## FC(F)(F)c1cc(CO[C@H]2CCCN[C@H]2c2ccccc2)cc(C(F)(F)F)c1
[3]
  AC50: 6.31 µM [rising, partial curve]
[1]; [10]
  max response: 62.8% and 60.8%
[1]; [11]
  AC50: 39.8 µM [rising, partial curve, poor fit]
[1]; [12]
  AC50: 39.8 µM [rising, partial curve, poor fit]
[1]; [13]
  max response: 75% and 61%
[2]; [14]
  AC50: 26.9 µM [falling, full curve]
[2]; [15]
  AC50: 26.9 µM [falling, full curve]

## N[C@@H](Cc1c[nH]c2ccc(O)cc12)C(=O)O
[1]; [10]
  max response: 29.4%
[1]; [11]
  AC50: 17.8 µM [falling, partial curve, poor fit]
[1]; [12]
  AC50: 11.2 µM [falling, partial curve, poor fit]
[1]; [13]
  max response: 31.3%
[2]; [15]
  AC50: 84.9 µM [falling, single point]
[4]; [16]
  AC50: 32.6 µM [rising, single point]

## NCCCCCCNS(=O)(=O)c1cccc2c(Cl)cccc12
[1]; [10]
  max response: 71.7% and 28.3%
[1]; [11]
  AC50: 35.5 µM [rising, partial curve, poor fit]
[1]; [12]
  AC50: 35.5 µM [rising, partial curve, poor fit]
[1]; [13]
  max response: 86.5% and 27.9%
[2]; [14]
  AC50: 53.6 µM [falling, partial curve]
[2]; [15]
  AC50: 67.5 µM [falling, partial curve]

## c1cnc2c(c1)ccc1cccnc12
[1]; [10]
  max response: 43.7%
[1]; [11]
  AC50: 39.8 µM [rising, single point]
[1]; [12]
  AC50: 39.8 µM [rising, single point]
[1]; [13]
  max response: 45.7%
[2]; [15]
  AC50: 9.53 µM [falling, full curve]
[5]
  AC50: 8.2 µM [falling, partial curve]
  viability change: -41.9%
[6]
  AC50: 10 µM [rising, full curve, poor fit]
[7]
  AC50: 2.51 µM [falling, full curve]
[8]
  max response: 16.6%
[9]
  max response: -2.23%

## O=S(=O)(c1cccc2c(Cl)cccc12)N1CCCNCC1
[1]; [10]
  max response: 52.5% and 48.9%
[1]; [11]
  AC50: 39.8 µM [rising, single point]
[1]; [12]
  AC50: 39.8 µM [rising, single point]
[1]; [13]
  max response: 78.7% and 51.3%
[2]; [14]
  AC50: 42.6 µM [falling, partial curve]
[2]; [15]
  AC50: 47.8 µM [falling, partial curve]

## C[C@](N)(Cc1ccc(O)c(O)c1)C(=O)O
[1]; [10]
  max response: 38.4%
[1]; [11]
  AC50: 15.8 µM [rising, single point]
[1]; [12]
  AC50: 31.6 µM [rising, single point]
[1]; [13]
  max response: 48.4%
[2]; [14]
  AC50: 84.9 µM [falling, single point]
[2]; [15]
  AC50: 84.9 µM [falling, single point]

## NCCCNCCCCNCCCN
[1]; [10]
  max response: -13.9%
[1]; [11]
  AC50: 1.58 µM [falling, full curve, poor fit]
[1]; [12]
  AC50: 1.41 µM [falling, full curve, poor fit]
[1]; [13]
  max response: -15.2%
[2]; [14]
  AC50: 60.1 µM [falling, partial curve]
[2]; [15]
  AC50: 67.5 µM [falling, partial curve]

## CC1=C(/C=C/C(C)=C/C=C/C(C)=C\C(=O)O)C(C)(C)CCC1
[1]; [10]
  max response: 49.4%
[1]; [11]
  AC50: 39.8 µM [rising, single point]
[1]; [12]
  AC50: 39.8 µM [rising, partial curve, poor fit]
[1]; [13]
  max response: 52.8%
[2]; [15]
  AC50: 2.39 µM [falling, full curve, poor fit]
[4]; [17]
  AC50: 9.2 µM [falling, partial curve]
[4]; [16]
  AC50: 13 µM [falling, single point]

## CN(C)c1cc2c(Nc3ccc4c(cnn4Cc4ccccc4)c3)ncnc2cn1
[1]; [10]
  max response: -98.5%
[1]; [11]
  AC50: 20 µM [falling, partial curve, poor fit]
[1]; [12]
  AC50: 20 µM [falling, partial curve, poor fit]
[1]; [13]
  max response: -109%
[2]; [14]
  AC50: 26.9 µM [falling, full curve]
[2]; [15]
  AC50: 33.8 µM [falling, full curve]
[4]; [17]
  AC50: 18.4 µM [falling, partial curve]
[4]; [16]
  AC50: 29.1 µM [falling, single point]
[5]
  viability change: -11.6%

## COc1ccccc1N1CCN(CCCCN2C(=O)c3ccccc3C2=O)CC1
[1]; [10]
  max response: 65.2% and 60%
[1]; [11]
  AC50: 12.6 µM [rising, full curve]
[1]; [12]
  AC50: 12.6 µM [rising, full curve]
[1]; [13]
  max response: 78.9% and 57.1%
[4]; [17]
  AC50: 7.31 µM [falling, partial curve]
